Marks after values point to notes of the source that are not given here.
Tests used:
human GLP1R [1] = biological target: T1, human GLP1R (Homo sapiens, UniProt P43220); assay: b-arrestin 2 recruitment enzyme fragment complementation assay in HEK293/b-arrestin2/hGLP1R cells; assay type: cell-based; set-up: The full-length human GLP1R (NP_002053.3) with a C-terminus fusion to a small b-gal fragment called enzyme donor or ProLink (PK); host or cells: HEK293/b-arrestin2-EA (HEK293/Barrestin clone 2C6/hGLP1R-Prolink1 high sorted, ACL21687)
T1 sequence (P43220 24-463): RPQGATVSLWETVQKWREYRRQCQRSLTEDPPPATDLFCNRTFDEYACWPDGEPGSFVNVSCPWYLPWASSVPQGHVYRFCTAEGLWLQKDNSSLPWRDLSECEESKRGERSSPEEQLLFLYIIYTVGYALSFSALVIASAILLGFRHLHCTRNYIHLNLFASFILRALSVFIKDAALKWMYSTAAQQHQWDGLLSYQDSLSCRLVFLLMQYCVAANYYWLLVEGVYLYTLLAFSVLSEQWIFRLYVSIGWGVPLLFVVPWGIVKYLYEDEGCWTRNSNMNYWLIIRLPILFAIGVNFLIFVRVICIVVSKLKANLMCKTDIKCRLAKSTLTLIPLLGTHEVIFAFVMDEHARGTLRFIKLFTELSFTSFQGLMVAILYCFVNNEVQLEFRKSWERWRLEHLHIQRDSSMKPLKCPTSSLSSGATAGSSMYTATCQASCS
From the text: To test the recruitment of b-arrestin 1 and b-arrestin 2 to GLP1R upon receptor activation, two enzyme fragment complementation assays were developed. To generate the assay cell lines, b-arrestin 1 fused to the b-galactosidase (b-gal) reporter fragment called enzyme acceptor (EA) (i.e., b-arrestin1-EA) or b-arrestin 2 fused to the b-gal reporter fragment EA (i.e., b-arrestin2-EA) were transduced into HEK293 cells using PathHunter b-Arrestinl Retroparticles (DiscoverX, #83-OT-TB-N-01) or PathHunter b-Arrestin2 Retroparticles (DiscoverX, #93-1087), respectively. The full-length human GLP1R (NP_002053.3) with a C-terminus fusion to a small b-gal fragment called enzyme donor or ProLink (PK) (i.e., hGLP1R-PK) was then engineered into HEK293/b-arrestinl-EA cells and HEK293/b-arrestin2-EA cells to generate the cell lines referred herein as HEK293/b-arrestin1/hGLP1R and HEK293/b-arrestin2/hGLP1R. […]
For b-arrestin 1 and b-arrestin 2 recruitment assays, after a 1-hour incubation at 37° C., PathHunter Detection Reagent (Eurofins DiscoverX, #93-0001) was added to the wells followed by a 1-hour incubation at room temperature. RLUs were measured on EnVision Plate Reader (Perkin Elmer).
(§1) EC50 values for luminescence assays were determined using a four-parameter logistic equation over a 12-point dose response curve (GraphPad Prism).

human GLP1R [2] = biological target: T1, human GLP1R; assay: CRE-Luc cAMP responsive luciferase reporter assay in HEK293/CRE-Luc/hGLP1R cells; assay type: cell-based; set-up: engineered to express full-length human GLP1R (GenBank: AAI12127.1) (HEK293/CRE-Luc/hGLP1R); expressed in transfected cells; host or cells: HEK293/CRE-Luc (HEK293/FSC11/pCDNA3.1 + GLP1R, ACL6822)
From the text: To test the activity of GLP1R agonist linker-payloads (LPs) and anti-GLP1R antibody-tethered ligands (ATLs) of the invention, a cell-based cAMP responsive luciferase reporter assay was developed. To generate the assay cell line, the firefly luciferase gene was placed under the control of four copies of a cAMP response element (4×CRE) located upstream of a minimal promoter and transfected into HEK293 cells and referred to herein as HEK293/CRE-Luc cells. HEK293/CRE-Luc cells were then engineered to express full-length human GLP1R (GenBank: AAI12127.1) (HEK293/CRE-Luc/hGLP1R).
For all assays, cells were seeded into 384-well plates (Falcon #353988) at 6,000 cells/well in assay media (Opti-MEM, 1% FBS, 1×Penicillin-Streptomycin) and incubated overnight at 37° C. Serial dilutions of the anti-GLP1R ATLs and non-binding control ATLs were performed in assay media. Serial dilutions of linker-payloads (LPs) were performed in 100% DMSO (ATCC, #4-X-5), followed by 1:100 dilution in assay media. […]
For the CRE-Luc assay, after a 5-hours incubation at 37° C., luciferase activity was determined by addition of ONE-Glo reagent (Promega, #E6130) followed by measurement of relative light units (RLUs) on EnVision Plate Reader (Perkin Elmer).
as §1

[3] = tested on: obese GLP1R humanized mice; assay: Percent body weight change in obese GLP1R humanized mice, comparison of nine ATLs (study 19.2); assay type: in vivo, mouse; details: for Percent body weight change from day 0 (mean): 25 mg/kg s.c. single dose
From the text: To determine body weight lowering effects of anti-GLP1R antibody-tethered-ligands (ATLs) of the invention in obese animals, mice homozygous for the expression of human GLP1R in place of mouse GLP1R (referred to as GLP1R humanized mice) were placed on high-fat diet (60% kcal % fat) for 4 months. Sixty-five, 6-month-old male, GLP1R humanized mice were stratified into ten groups of five to seven mice, based on their day 0 body weights. After the stratification, each group was subcutaneously administered with one of nine an anti-GLP1R ATLs or an isotype control antibody (referred to as Control) at 25 mg/kg on day 0.
At weeks one, two, four, six and eight post administration, body weights of the animals were recorded. Mean±SEM of percent changes in body weight from day 0 at each time point was calculated for each group and are shown in Table 33. Statistical analyses were performed by two-way ANOVA followed by Bonferroni post-hoc tests, comparing the Control group to the other nine groups.

B1: REGN15869-M3190 (conjugate)
heavy: [… about 100 residues …]GLIAPRPMGFDYWGQGTLVTVSSASTKGPSVFPLAPCSRSTSESTAALGCLVKDYFPEPVTVSWNSGALTSGVHTFPAVLQSSGLYSLSSVVTVPSSSLGTKTYTCNVDHKPSNTKVDKRV[… human IgG4 Fc with S228P (EU numbers) …]
light: LLQGSGDIQMTQSPSSVSASVGDRVTITCRASQGINSWLAWYQQKPGKAPKLLIYAASSLESGVPSRFSGSGSGTDFTLTISSLQPEDFATYYCHQADSFPYTFGQGTKLEIKRTVAAPSVFIFPPSDEQLKSGTASVVCLLNNFYPREAKVQWKVDNALQSGNSQESVTEQDSKDSTYSLSSTLTLSKADYEKHKVYACEVTHQGLSSPVTKSFNRGEC
EC50 (human GLP1R [1]; independent experiments A, B): 15.3 nM | Emax (% GLP-1), b-Arrestin2 recruitment, HEK293/b-arrestin2/hGLP1R (human GLP1R [1]; relative to GLP-1): 99.7 % GLP-1 | EC50 (human GLP1R [2]; independent experiments A, B, C, read-out: EC50 (M), CRE-dependent reporter activity, HEK293/CRE-Luc/hGLP1R): 1.72e-10 M | Emax (% GLP-1), CRE-dependent reporter activity, HEK293/CRE-Luc/hGLP1R (human GLP1R [2]; relative to GLP-1): 93.7 % GLP-1 | Percent body weight change from day 0 (mean) ([3]; week 1): −7.9*** % | Percent body weight change from day 0 (mean) ([3]; week 2): −9.5* % | Percent body weight change from day 0 (mean) ([3]; week 4): −5.3% | Percent body weight change from day 0 (mean) ([3]; week 8): 7.2% | body weight (percent change from day 0) ([3]; 25 mg/kg single s.c. dose on day 0, weeks 1, 2, 4, 6, 8): significant reductions in body weight were observed at weeks 1 and 2 post-administration, but other time points did not reach significance
